# In the supplement of paper PMC12217912:
# The list shows a part of the results. Sequences were assembled here from the parent chain. Values near 0.05 are background.
# B1: TEV protease; numbered along this chain (parent)
# chain: MGESLFKGPRDYNPISSSICHLTNESDGHTTSLYGIGFGPFIITNKHLFRRNNGTLVVQSLHGVFKVKDTTTLQQHLVDGRDMIIIRMPKDFPPFPQKLKFREPQREERICLVTTNFQTKSMSSMVSDTSCTFPSGDGIFWKHWIQTKDGQCGSPLVSTRDGFIVGIHSASNFTNTNNYFTSVPKNFMELLTNQEAQQWVSGWRLNADSVLWGGHKVFMVKPEEPFQPVKEATQL
# Variants of: B1
# Test: raw area under fraction-flipped curve 0-4 h after induction (AUC4h, not background-subtracted), DNA-recorder readout of cleavage of the substrate (dimensionless); higher = more cleavage of the substrate by the protease variant
# Settings: temperature: 34 °C; time window: 0-4 h after rhamnose induction
# 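Also: Bxb1 expression induced with 0.2% (w/v) L-rhamnose at OD600 near 0.5, cultures sampled hourly, flipped fraction per protease–substrate barcode pair counted by paired-end Illumina sequencing.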
Variant,area with substrate EALYFQS,area with substrate ECLYFQS,area with substrate EFLYFQS,area with substrate EGLYFQS,area with substrate EHLYFQS,area with substrate EILYFQS,area with substrate EKLYFQS,area with substrate ELLYFQS,area with substrate EMLYFQS,area with substrate EPLYFQS,area with substrate EQLYFQS,area with substrate ERLYFQS,area with substrate ESLYFQS,area with substrate EVLYFQS,area with substrate EWLYFQS,area with substrate EYLYFQS,area with substrate EELYFQS,area with substrate ETLYFQS,area with substrate EDLYFQS
V183D,0.045,0.0542,0.0971,0.0318,0.0634,0.0452,0.0472,0.0705,0.044,0.0435,0.0497,0.0464,0.0542,0.0426,0.0535,0.0532,,,
V183P,0.109,0.0771,0.131,,0.0895,0.0834,0.119,0.0678,0.105,0.111,0.109,0.104,0.0853,0.104,,0.0713,0.0638,0.132,
V183W,0.0935,0.0697,,0.08,0.0451,0.0678,0.0848,0.0758,0.0826,0.082,,0.0678,0.0671,0.0657,0.0702,0.0882,0.117,0.089,
P184F,0.0741,,,,0.078,0.0695,0.0683,,0.0738,0.0796,0.0759,0.0781,0.0716,0.0576,0.0645,,,,
K185C,0.12,,0.108,0.103,0.123,0.0951,0.118,0.0815,0.127,,0.101,0.114,0.104,0.0987,,0.139,0.123,,0.128
K185M,0.164,0.121,,0.0871,0.122,,0.14,0.097,0.102,0.123,0.145,0.106,0.0975,0.0945,0.0828,,,0.108,
K185S,0.128,0.15,0.106,0.103,,,,,0.113,0.142,0.11,0.0903,0.0887,0.106,0.0949,,,,
F187D,0.0642,0.0274,,0.0503,0.111,0.0504,,,,0.0544,0.0573,0.0606,0.0635,0.0439,,,0.0338,,
F187R,0.0595,,0.0509,0.0597,,,0.0505,,0.0351,,0.0583,0.0591,0.0537,0.0526,0.0515,,0.0607,0.0503,0.0459
F187Y,0.0688,,0.105,0.0455,,0.0664,0.0761,0.0959,0.0734,0.125,,0.0515,0.0778,0.0824,0.0689,0.0857,0.0913,,
M188N,0.112,0.12,,0.109,0.112,0.0818,0.0991,0.0978,0.102,0.117,0.116,,0.124,0.0781,,0.0746,,0.113,
M188S,0.11,,0.0954,0.0617,0.0942,,0.105,,0.0972,,0.129,0.113,0.0993,,0.0853,,0.116,0.103,0.101
E189C,0.0941,,,0.0768,,0.0802,0.0664,0.0789,0.0893,0.0779,0.0743,0.105,0.0818,,0.0715,0.0655,0.0861,0.0848,0.0812
E189G,0.0983,,,0.0866,0.0827,0.102,0.104,0.0879,,,0.119,,0.11,,0.0915,,0.137,0.114,
E189N,0.0768,,0.0924,0.0888,0.137,0.104,0.106,0.0823,0.108,0.106,0.0949,0.0509,0.0997,0.0887,0.136,,0.0676,0.129,
E189T,0.128,0.128,0.0955,0.0563,,0.108,0.11,,,0.104,,0.0991,0.116,0.0852,,0.0792,,,
L191P,0.0499,0.0408,,0.056,0.06,,,,0.048,0.0494,,,0.0506,0.0592,,,,,
Q194H,0.12,0.121,,0.117,0.158,0.0971,0.129,0.116,,0.156,0.121,0.0775,0.0975,,,0.091,,,
Q194N,0.165,0.121,,,,,0.116,,0.122,,0.152,,0.0585,0.116,0.121,0.0986,,,
E195A,0.127,0.0886,,0.105,0.112,0.0817,0.0985,0.0967,,,0.146,0.101,0.117,0.0923,0.141,0.112,0.0781,0.113,
E195N,0.113,0.112,,0.135,0.0424,0.0937,0.0812,0.0999,,,,0.0895,0.1,0.0909,0.098,0.0878,0.0959,0.129,
E195R,0.105,,0.0947,0.0991,0.0886,,,,0.153,0.134,0.081,,0.0984,,0.0826,0.0825,0.113,0.108,
A196D,0.109,0.0935,0.0708,0.0896,0.0991,0.0879,0.0983,,0.105,0.119,,,0.122,0.11,0.11,,,,
A196F,0.124,0.134,0.123,0.106,0.126,,0.11,,0.116,,0.102,0.102,,0.0931,0.0901,0.112,0.0801,0.103,
A196W,0.0873,0.0972,,0.0808,0.103,,0.0773,,0.0864,,,0.093,,0.0804,,,,,0.105
Q197V,0.121,,,0.0897,0.104,0.0747,,,,0.0853,0.136,0.113,0.102,0.12,0.0413,,0.12,0.148,0.15
Q198A,0.108,0.0914,0.104,,0.103,,0.133,,0.0801,,0.0923,,,0.0926,0.0818,0.0804,0.0766,,
